Results published in PubChem BioAssay AID603 (National Center for Advancing Translational Sciences (NCATS), 2007).
Values joined by “and” are separate entries in the source; they are usually repeats but may differ in a detail not shown here. Equal values may be shown once. Screen size: about 71,000 compounds; about 180 (0.25%) were called active. The inconclusive results got no clear call from the source; some entries with a clear call stand among them for comparison. The call rests on the fitted dose curve; in most records, active means well fitted curve in the direction sought with a large enough effect; inconclusive means small, poorly fitted or top-dose-only effect; inactive means flat fitted curve, though single readings scatter. Potencies beside an inconclusive call are fits to weak or partial responses and may not hold up. Where a structure was tested more than once in an assay, its records may differ in their call.

System: DNA polymerase III holoenzyme (E. coli)
Experiment: qHTS Assay for Inhibitors of DNA Polymerase III Holoenzyme System
Settings: reconstituted DNA polymerase III holoenzyme replication, biochemical; series mostly up to 57.1 µM
In short: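 Reconstituted *E. coli* holoenzyme (0.35 nM Pol III, 1 nM beta, 154 nM SSB, 2 nM primase) was preincubated with compound for 15 min at RT. Synthesis on 1.4 nM ssM13Gori ran 35 min, then was stopped with PicoGreen/EDTA and read as dsDNA fluorescence.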
On the % scale 0 is the no-effect control and ±100 the full control effect; potency means the concentration at half of the fitted maximal effect.

Row | Structure (SMILES) | Potency | activity change, negative = inhibition
1 | CCC(=O)Nc1ccc(C(=O)Nc2cccnc2)cc1 | inactive | 
2 | CC(=O)N1CSCC1C(=O)O (stereo not drawn) | inconclusive: 6.31 µM | 
3 | COc1ccc(C(=O)N2c3cc4c(cc3C(C)=CC2(C)C)OCO4)cc1 | inactive | 
4 | O=C(CSc1nc(C2CC2)nc2sc3c(c12)CCCC3)NCc1ccco1 | inconclusive: 6.31 µM | 
5 | Cc1ccc2c(CC(=O)OCn3nnc4ccccc4c3=O)coc2c1 | inconclusive: 6.31 µM | 
6 | CCCCOc1ccc(NC(=O)CSCC(=O)OCC)cc1 | inconclusive: 6.31 µM | 
7 | Nc1nc2c(s1)CCc1c-2cnn1-c1ccccc1 | inconclusive: 39.8 µM | 
8 | CCc1nc2sc3ccccc3c(=O)c2c(=O)n1Cc1ccco1 | inactive | 
9 | Cc1noc(C)c1COC(=O)c1cccc(S(=O)(=O)N2CCCCCC2)c1 | inconclusive: 6.31 µM | 
10 | O=C1CSC(=S)N1CC1CCCO1 (stereo not drawn) | inconclusive: 5.01 µM | 
11 | Cc1ccc(S(=O)(=O)c2cc3c(=O)n4cccc(C)c4nc3n(Cc3ccco3)c2=N)cc1C | inconclusive: 31.6 µM | 
12 | CNC(=O)NC(=O)CSc1cccc(C(F)(F)F)c1 | inconclusive: 5.01 µM | 
13 | Cc1occc1-c1nnc(SCc2nc3ccccc3c(=O)n2CC#N)n1C | inconclusive: 6.31 µM | 
14 | COc1ccccc1CN(Cc1nc2ccccc2c(=O)[nH]1)C(=O)Nc1ccccc1 | inconclusive: 6.31 µM | 
15 | CN(C)c1ccc(C(=C2C=CC(=[N+](C)C)C=C2)c2ccc(N(C)C)cc2)cc1 | active: 39.8 µM | 
16 | O=C(Nc1cc(C(=O)Nc2ccc(S(=O)(=O)O)cc2S(=O)(=O)O)cc(C(=O)Nc2ccc(S(=O)(=O)O)cc2S(=O)(=O)O)c1)Nc1cc(C(=O)Nc2ccc(S(=O)(=O)O)cc2S(=O)(=O)O)cc(C(=O)Nc2ccc(S(=O)(=O)O)cc2S(=O)(=O)O)c1 | active: 12.6 µM and active: 3.98 µM | 
17 | Cc1ccc(C)n1C(Cc1ccccc1)C(=O)O (stereo not drawn) | inconclusive: 31.6 µM | 
18 | CC1=CC2=C(OC1N(C)C)c1cccc3cccc(c13)C2=O (stereo not drawn) | inconclusive: 31.6 µM | 
19 | CCN(CC)CC#CC(C)OCOCC#CCOC (stereo not drawn) | inconclusive: 1.58 µM | 
20 | CCC(C(=O)NC1CCCC1)N(C(=O)c1snc(C(N)=O)c1N)c1ccc2c(c1)OCCO2 (stereo not drawn) | inconclusive: 6.31 µM | 
21 | O=c1c(O)c(-c2ccc(O)c(O)c2)oc2ccccc12 | inconclusive: 0.631 µM | 
22 | CCN(CC)CCNc1ccc(CO)c2sc3ccccc3c(=O)c12 | inconclusive: 15.8 µM | 

Row | Structure (SMILES) | Potency | activity change, negative = inhibition
23 | CC1(C)S[C@@H]2[C@H](NC(=O)C3(N)CCCCC3)C(=O)N2[C@@H]1C(=O)O |  | inactive: -7.6% [at 11.4 µM]
24 | CCCCC(CC)COC(=O)COc1ccc(Cl)cc1Cl (stereo not drawn) | inactive | 
25 | CC(=O)n1nc(-c2ccco2)nc1N | inconclusive: 39.8 µM | 
26 | CCN(C(=O)c1ccc(C(C)(C)C)cc1)c1nnc(Cn2nnc3ccccc32)s1 | inconclusive: 6.31 µM | 
27 | O=C1c2cc([N+](=O)[O-])ccc2-c2ccc3c4ccc5c6c(ccc(c7ccc1c2c73)c64)C(=O)c1cc([N+](=O)[O-])ccc1-5 | active: 3.98 µM | 
28 | Cc1ccc(S(=O)(=O)N(C)c2ccc(C(=O)O)cc2)cc1 | inconclusive: 6.31 µM | 
29 | CCCC(c1nnnn1C1CCCCC1)N1CCN(C2CCCC2)CC1 (stereo not drawn) | inactive | 
30 | CN(C)CCCn1c2c3ccccc3ccc2c2oc(=O)c3ccccc3c21 | inconclusive: 2.51 µM | 
31 | CCc1ccccc1NC(=O)Cn1nnc(-c2cccs2)n1 | inactive | 
32 | CC(=O)Nc1ccc(S(=O)(=O)Nc2ccc(N3CCOCC3)cc2)cc1 | inconclusive: 6.31 µM | 
33 | O=c1c(-c2ccc(Cl)cc2)nc2cnc(N3CCNCC3)nc2n1Cc1cccs1 | active: 25.1 µM | 
34 | CCOC(=O)c1c(C)n(C)c2ccc(O)c(CN3CCC(C)CC3)c12 | inconclusive: 6.31 µM | 
35 | Nc1ccc(O)cc1C(=O)OCC(=O)C12CC3CC(CC(C3)C1)C2 | inactive | 
36 | O=C(CSc1nc2ccccc2c(=O)n1Cc1ccco1)NCc1ccccc1 | inactive | 
37 | Cc1cc(N)c2ccccc2[n+]1CCCCCCCCCC[n+]1c(C)cc(N)c2ccccc21 | inconclusive: 39.8 µM and active: 12.6 µM and active: 15.8 µM | 
38 | COc1ccccc1CC1(C)NC(=O)N(CC(=O)Nc2cc(C)on2)C1=O (stereo not drawn) | inconclusive: 39.8 µM | 
39 | CCCn1c(=O)c(C(=O)Nc2cnccn2)c(O)c2ccccc21 | inconclusive: 6.31 µM | 
40 | O=[N+]([O-])c1cccc2c[nH]nc12 | active: 15.8 µM | 
41 | COc1ccc(Br)cc1/C=c1\sc2nc(-c3ccco3)nn2c1=O | inconclusive: 31.6 µM | 
42 | CC(C)Oc1cccc(-c2cc(C(=O)N3CCN(S(C)(=O)=O)CC3)c3ccccc3n2)c1 | inactive | 
43 | CCc1nnc(NC(=O)C2CC(=O)N(Cc3ccco3)C2)s1 (stereo not drawn) | inconclusive: 6.31 µM | 
44 | CCn1nc(C(=O)OCC(=O)c2c[nH]c3ccccc23)c2ccccc2c1=O | inconclusive: 6.31 µM | 

Row | Structure (SMILES) | Potency | activity change, negative = inhibition
45 | N[C@@H](Cc1cc(-c2ccc(Cl)cc2Cl)cc(CP(=O)(O)O)c1O)C(=O)O | active: 31.6 µM | 
46 | COc1cc2c(cc1OC)-c1c(OC)c(OC)cc3ccnc(c13)C2=O | inconclusive: 7.94 µM | 
47 | Cn1c(-c2ccc(F)cc2)cnc1NCc1ccccc1 | inconclusive: 6.31 µM | 
48 | C[C@H](CCC(=O)O)[C@H]1CC[C@H]2[C@@H]3CC[C@@H]4C[C@H](O)CC[C@]4(C)[C@H]3CC[C@]12C | inconclusive: 39.8 µM | 
49 | Nc1ccc2oc(-c3cccc4ccccc34)nc2c1 | inconclusive: 6.31 µM | 
50 | O=C1C(SCCO)=C(SCCO)C(=O)c2ccccc21 | active: 31.6 µM | 
51 | Cc1cccc(Nc2ccccc2C(=O)O)c1C | active: 2.51 µM | 
52 | O=C(CN(C(=O)CNS(=O)(=O)c1ccccc1)C1CCCC1)NCC1CCCO1 (stereo not drawn) | inconclusive: 6.31 µM | 
53 | CC(C(=O)Nc1cccnc1)N1C(=O)c2ccccc2C1=O (stereo not drawn) | inconclusive: 6.31 µM | 
54 | O=C(NCCOC(=O)c1cccs1)c1cccnc1 | inconclusive: 6.31 µM | 
55 | Cc1[nH]n2c(=O)cc(Cc3ccccc3)nc2c1C#N | inactive | 
56 | Cn1c(-c2ccc3nc(N)sc3c2)nc2cc(N)ccc21 | inconclusive: 31.6 µM | 
57 | Cc1c(N2C(=O)c3ccc4c5c(ccc(c35)C2=O)CC4)c(=O)n(-c2ccccc2)n1C | active: 25.1 µM | 
58 | Cc1cc(Nc2ccc(N=Nc3ccc(O)c4ncccc34)cc2)nc(C)n1 |  | inactive: -7.7% [at 11.4 µM]
59 | CCCN(CCc1ccccc1)[C@H]1CCc2c(O)cccc2C1 | inactive | 
60 | CSc1nnc2c(n1)[nH]c1c(C)cccc12 | inconclusive: 39.8 µM | 
61 | COc1ccccc1CNc1cc(-c2ccccc2OC)ncn1 | inactive | 
62 | CN(C)c1ccc(-c2nc(NCCN3CCOCC3)c3ccccc3n2)cc1 | inconclusive: 31.6 µM | 
63 | O=C1Nc2ccc(S(=O)(=O)NCc3ccccn3)c3cccc1c23 | inconclusive: 39.8 µM | 
64 | COc1cccc2c1C(=N)c1c(O)c3c(c(O)c1C2=O)C[C@](O)(C(C)=O)C[C@@H]3O[C@H]1C[C@H](N)[C@@H](O)[C@H](C)O1 | active: 3.16 µM | 
65 | CCn1c(=O)c(C2=NS(=O)(=O)c3ccccc3N2)c(O)c2ccccc21 | inconclusive: 6.31 µM | 
66 | CCCCCCn1c(N2CCC(C)CC2)nc2c1c(=O)[nH]c(=O)n2C | inactive | 

Row | Structure (SMILES) | Potency | activity change, negative = inhibition
67 | CCCCCCCCCCCC1=C(O)C(=O)C=C(O)C1=O | active: 6.31 µM | 
68 | COc1cc(CCC(=O)OCc2nnc(-c3ccccc3)o2)cc(OC)c1OC | inconclusive: 6.31 µM | 
69 | COc1cc(C(=O)OC(C)C(=O)N2CCc3ccccc3C2)ccc1OCC(=O)N1CCOCC1 (stereo not drawn) | inconclusive: 6.31 µM | 
70 | Cc1cc2nc(NC3=NCN(Cc4cccnc4)CN3)nc(C)c2cc1C | inconclusive: 31.6 µM | 
71 | O=C(Oc1nsnc1N1CCOCC1)N1CCOCC1 | inconclusive: 6.31 µM | 
72 | COc1ccc(NC(=O)c2cnn3c(C(F)(F)F)cc(-c4ccco4)nc23)cc1OC | active: 1 µM | 
73 | O=C(c1n[nH]c2ccccc12)N1CCN(S(=O)(=O)c2ccc3ccccc3c2)CC1 | inactive | 
74 | N/N=C1/c2ccccc2N[C@H]1OC(=O)Nc1ccccc1 | inconclusive: 3.98 µM | 
75 | [Cl][In]([Cl])[Cl] | active: 31.6 µM | 
76 | O=S(=O)(Nc1ncnc2sc3c(c12)CCC3)c1ccc(Cl)s1 | inconclusive: 6.31 µM | 
77 | CCN(CC(=O)Nc1ccc2c(c1)CCC2)Cc1nc2ccccc2c(=O)[nH]1 | inconclusive: 6.31 µM | 
78 | CCOC(=O)Cn1c2ccccc2c2nc3ccccc3nc21 | inconclusive: 7.94 µM | 
79 | COc1ccc2cccc(N3CCN(CCNC(=O)c4ccc(F)cc4)CC3)c2c1 | inactive | 
80 | Cc1nc2c(c(=O)n1Cc1ccco1)c1nc3ccccc3nc1n2Cc1ccccc1 | inconclusive: 39.8 µM | 
81 | C[C@@H](C(=O)O)c1ccc(C[C@@H]2CCCC2=O)cc1 | inactive | 
82 | O=C(CSc1nnc(C2COc3ccccc3O2)o1)Nc1nccs1 (stereo not drawn) | inactive | 
83 | COc1ccc(C2=NCC(CSc3nccc(=O)[nH]3)S2)cc1 (stereo not drawn) | inconclusive: 6.31 µM | 
84 | N#Cc1c(N2CCN(C(=O)c3ccco3)CC2)nc(-c2ccccc2)c2c1CCCC2 | inactive | 
85 | COc1ccc(-c2nnc(SCC(=O)c3cc(C)n(Cc4cccs4)c3C)o2)cc1 | inconclusive: 6.31 µM | 
86 | CCn1c(C(O)c2ccccc2)nc2ccccc21 (stereo not drawn) | inactive | 
87 | O=C(CN1C(=O)C2CCc3[nH]c4ccccc4c3C2C1=O)N1CCCC1 (stereo not drawn) | inconclusive: 6.31 µM | 
88 | COc1ccc(CCC2(C)NC(=O)NC2=O)cc1 (stereo not drawn) | inconclusive: 6.31 µM | 
